From PMC11637378, “Optogenetic screening of MCT1 activity implicates a cluster of non-steroidal anti-inflammatory drugs (NSAIDs) as inhibitors of lactate transport” (PLOS ONE, 2024)

Molecular target: T1, R. norvegicus MCT1 (F360C) (UniProt P36035+P53987, F360C)
T1 sequence (P36035+P53987 with tags, fused parts or gaps P53987:F360C): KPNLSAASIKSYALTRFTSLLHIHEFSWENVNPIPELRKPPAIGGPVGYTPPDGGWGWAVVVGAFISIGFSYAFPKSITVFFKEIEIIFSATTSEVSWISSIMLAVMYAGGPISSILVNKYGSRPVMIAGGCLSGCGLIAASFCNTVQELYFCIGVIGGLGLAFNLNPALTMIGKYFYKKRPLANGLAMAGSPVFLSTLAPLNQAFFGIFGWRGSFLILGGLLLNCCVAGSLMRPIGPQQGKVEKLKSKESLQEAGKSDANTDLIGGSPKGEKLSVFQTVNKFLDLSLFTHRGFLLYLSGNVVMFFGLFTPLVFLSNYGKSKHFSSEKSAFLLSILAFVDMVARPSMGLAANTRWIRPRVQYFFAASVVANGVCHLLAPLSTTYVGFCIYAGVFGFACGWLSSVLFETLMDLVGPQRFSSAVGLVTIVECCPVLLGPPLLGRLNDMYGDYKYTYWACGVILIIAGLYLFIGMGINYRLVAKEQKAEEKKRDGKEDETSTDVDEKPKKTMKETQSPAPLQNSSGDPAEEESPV
Assay type: cell-based

CC(=O)Nc1cccc(O)c1 [Metacetamol]
Percent AZD3965: -7.335% | Z-score: 0.3699

COC(=O)c1ccccc1O [Methyl salicylate]
Percent AZD3965: 2.824% | Z-score: -0.1298

CCN(CC)C(=O)[C@]1(c2ccccc2)C[C@@H]1CN.Cl [Milnacipran hydrochloride]
Day1: 0.074 | Day2: 0.8305 | Fraction: 0.0891 | Percent AZD3965: 111.097% | Z.score: -5.08

CCN(CC)C(=O)C1(c2ccccc2)CC1CN (stereo not drawn) [Milnacipran]
Day1: 0.074 | Day2: 0.8305 | Fraction: 0.0891 | Percent: 111.097% | Z.score: -5.08

COc1c(C)c2c(c(O)c1C/C=C(\C)CCC(=O)O)C(=O)OC2 [Mycophenolic (Mycophenolate)]
Day1: 0.2166 | Day2: 0.8323 | Fraction: 0.2602 | Percent AZD3965: 77.8422% | Z.score: -3.184

O=C1C[C@@H](c2ccc(O)cc2)Oc2cc(O)cc(O)c21 [NARINGENIN]
Fraction (10 μM): 0.3597 | Percent AZD3965 (10 μM): 61.2861% | Z.score (10 μM): -5.108

O=[N+]([O-])c1ccc(O)c2ncccc12 [NITROXOLINE]
Day1: 0.0479 | Day2: 0.8236 | Fraction (10 μM): 0.05816 | Percent AZD3965 (10 μM): 118.213% | Z.score (10 μM): -5.965

COc1ccc2cc(CCC(C)=O)ccc2c1 [Nabumetone]
Percent AZD3965: -4.003% | Z-score: 0.2159

O=C1C[C@@H](c2ccc(O)cc2)Oc2cc(O)cc(O)c21 [Naringenin]
Day1: 0.2992 | Day2: 0.8317 | Fraction: 0.3597 | Percent: 61.2861% | Z.score: -5.108

NC(=O)Cc1cccc(C(=O)c2ccccc2)c1N [Nepafenac]
Percent AZD3965: 3.929% | Z-score: -0.1285

Cc1ccccc1-c1cc(N2CCN(C)CC2)ncc1N(C)C(=O)C(C)(C)c1cc(C(F)(F)F)cc(C(F)(F)F)c1 [Netupitant]
Day1: 0.4476 | Day2: 0.8364 | Fraction: 0.5352 | Percent: 40.3583% | Percent AZD3965: 40.3583% | Z.score: -6.855

O=C(O)c1cccnc1Nc1cccc(C(F)(F)F)c1 [Niflumic acid]
Percent AZD3965: 4.097% | Z-score: -0.2787

CC(Cc1ccc(O)c(O)c1)C(C)Cc1ccc(O)c(O)c1 (stereo not drawn) [Nordihydroguaiaretic acid]
Day1: 0.1035 | Day2: 0.7449 | Fraction: 0.1389 | Percent: 102.566% | Z.score: -3.361 | Fraction (10 μM): 0.1389 | Percent AZD3965 (10 μM): 102.566% | Z.score (10 μM): -3.361

NCC(=O)Nc1ccc(-n2nc(C(F)(F)F)cc2-c2ccc3c(ccc4ccccc43)c2)cc1 [OSU-03012 (AR-12)]
Day1: 0.2328 | Day2: 0.8521 | Fraction: 0.2732 | Percent AZD3965: 77.508% | Z.score: -4.04

O=C(O)CCc1nc(-c2ccccc2)c(-c2ccccc2)o1 [Oxaprozin]
Percent AZD3965: 7.1946% | Z-score: -0.4497

CCCCC1C(=O)N(c2ccccc2)N(c2ccc(O)cc2)C1=O (stereo not drawn) [Oxyphenbutazone]
Percent AZD3965: 3.439% | Z-score: -0.2364

O=C(/C=C/c1ccc(O)c(O)c1)OCCc1ccccc1 [PHENETHYL CAFFEATE (CAPE)]
Day1: 0.0549 | Day2: 0.7783 | Fraction (10 μM): 0.07054 | Percent AZD3965 (10 μM): 114.39% | Z.score (10 μM): -5.685

c1ccc2c(c1)Nc1ccccc1S2 [PHENOTHIAZINE]
Fraction (10 μM): 0.5523 | Percent AZD3965 (10 μM): 31.7015% | Z.score (10 μM): -3.813

O=C1c2ccccc2C(=O)c2c(O)c(O)cc(O)c21 [PURPURIN]
Day1: 0.2891 | Day2: 0.6964 | Fraction (10 μM): 0.4151 | Percent AZD3965 (10 μM): 50.894% | Z.score (10 μM): -4.242

c1ccc2c(c1)Nc1ccccc1S2 [Phenothiazine]
Day1: 0.4688 | Day2: 0.8488 | Fraction: 0.5523 | Offtarget_sub: 0.3075 | Percent: 31.7015% | Z.score: -3.813

CCCCC1C(=O)N(c2ccccc2)N(c2ccccc2)C1=O [Phenylbutazone]
Percent AZD3965: 10.1889% | Z-score: -0.7109

O=C(CCc1ccc(O)cc1)c1c(O)cc(O)cc1O [Phloretin]
Day1: 0.3412 | Day2: 0.7935 | Fraction: 0.43 | Offtarget_sub: 0.1879 | Percent: 49.1091% | Percent AZD3965: 49.1091% | Z.score: -3.318

CC(C(=O)O)c1ccc2c(c1)Cc1cccnc1O2 (stereo not drawn) [Pranoprofen]
Percent AZD3965: 4.459% | Z-score: -0.2252

O=C(C1CCCCC1)N1CC(=O)N2CCc3ccccc3C2C1 (stereo not drawn) [Praziquantel]
Day1: 0.2811 | Day2: 0.8925 | Fraction: 0.315 | Offtarget_sub: 0.1405 | Percent: 66.5468% | Z.score: -4.641 | Fraction (10 μM): 0.315 | Percent AZD3965 (10 μM): 66.5468% | Z.score (10 μM): -4.641

CCCc1c(-c2ccc(O)cc2)nn(-c2ccc(O)cc2)c1-c1ccc(O)cc1 [Propylpyrazole triol]
Offtarget_sub: -0.0238

O=c1c(O)c(-c2ccc(O)c(O)c2)oc2cc(O)cc(O)c12 [Quercetin (Sophoretin)]
Day1: 0.2282 | Day2: 0.838 | Fraction: 0.2723 | Percent AZD3965: 75.3571% | Z.score: -3.082

O=c1c(O)c(-c2ccc(O)c(O)c2)oc2cc(O)cc(O)c12 [Quercetin dihydrate]
Day1: 0.2177 | Day2: 0.8165 | Fraction: 0.2666 | Percent AZD3965: 79.1565% | Z.score: -5.348

O=c1c(O)c(-c2ccc(O)c(O)c2)oc2cc(O)cc(O)c12 [Quercetin]
Day1: 0.2177 | Day2: 0.8165 | Fraction: 0.2666 | Offtarget_sub: 0.0644 | Percent: 79.1565% | Z.score: -5.348

Cc1c(NC(C)C)c(=O)n(-c2ccccc2)n1C [Ramifenazone]
Percent AZD3965: -5.639% | Z-score: 0.2843

CO[C@H]1C[C@@H]2CC[C@@H](C)[C@@](O)(O2)C(=O)C(=O)N2CCCC[C@H]2C(=O)O[C@H]([C@H](C)C[C@@H]2CC[C@@H](O)[C@H](OC)C2)CC(=O)[C@H](C)/C=C(\C)[C@@H](O)[C@@H](OC)C(=O)[C@H](C)C[C@H](C)/C=C/C=C/C=C/1C [Rapamycin]
Day1: 0.0549 | Day2: 0.1478 | Fraction (10 μM): 0.3714 | Percent AZD3965 (10 μM): 55.7084% | Z.score (10 μM): -3.886

Nc1ccc(-c2nc3ccc(-c4nc5cc(N)ccc5[nH]4)cc3[nH]2)cc1 [Ro 90-7501]
Day1: 0.0517 | Day2: 0.9374 | Fraction (10 μM): 0.05515 | Percent AZD3965 (10 μM): 117.555% | Z.score (10 μM): -7.983

CS(=O)(=O)c1ccc(C2=C(c3ccccc3)C(=O)OC2)cc1 [Rofecoxib]
Day1: 0.0762 | Day2: 0.833 | Fraction: 0.09148 | Offtarget_sub: -0.0691 | Z-score: -2.341 | Z.score: -5.058

Where two headings read alike, the source gives them in different places.
